Screen size: about 410,000 compounds; about 7,200 (1.8%) were called active. This list was built around the results that the source calls inconclusive (neither active nor inactive); the mix of calls is not that of the screen. Calls follow the shape of the dose curve; as a rule, active = well fitted activation curve with a large enough effect; inconclusive = small, poorly fitted or top-dose-only effect, or another doubt; inactive = no such curve, though single readings can be large or run the other way. Potencies of inconclusive entries are left out as doubtful fits.
assay: qHTS of TDP-43 Inhibitors; settings: TDP-43 expressing yeast growth rescue, BacTiter-Glo, 24 h; growth rescue (activation): at 46.1 µM (top of the series); also: nearly all actives have a fitted effect of over 50% in size; as to growth rescue (activation): % of control where 0% means no effect
Method in brief: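 Yeast cells expressing TDP-43 under galactose induction are exposed to compounds for 24 hr at 30 deg C. BacTiter-Glo luminescence measures growth, so protective compounds score as activators.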
Potency is read from the fitted curve at half-maximal effect; tags tell the direction and shape of the fitted curve.

| SMILES | growth rescue (activation) | Potency |
| --- | --- | --- |
| COc1cc(O)c(C(=O)O)c(-c2cc(O)c(O)cc2C)c1 | inactive: 17.3% | – |
| CSCCC(c1nnnn1-c1c(C)cccc1C)N1CCC(n2c(=O)[nH]c3ccccc32)CC1 (stereo unspecified) | – | inconclusive [activator, partial curve] |
| CC1=NCCc2c1[nH]c1cc(O)ccc21 | – | inconclusive [activator, full curve, poor fit] |
| O=C(c1ccco1)c1cn(Cc2ccccc2Cl)c2ccccc12 | – | inconclusive [activator, single point] |
| Oc1ccc(Cl)cc1Sc1cc(Cl)ccc1O | inactive: -92.3% | – |
| COc1cc2c(cc1OC)[C@H]1C(=O)c3ccc4c(c3O[C@H]1CO2)C[C@@H](C(C)(C)O)O4 | – | inconclusive [activator, single point] |
| O=C(COC(=O)Cc1ccccc1)Nc1cc(S(=O)(=O)N2CCCCC2)ccc1Cl | – | inconclusive [activator, single point] |
| CCCCCCCC(=O)OCC(O)CO (stereo unspecified) | – | inconclusive [activator, single point] |
| CC[C@H]1CC2CN3CCc4c([nH]c5cc(OC)ccc45)[C@](C(=O)OC)(C2)[C@H]13 | – | inconclusive [activator, single point] |
| Fc1ccc(N2Cc3ccccc3-n3nncc3C2)cc1 | – | inconclusive [activator, partial curve] |
| O=[N+]([O-])c1ccc(Nc2ccccc2)cc1 | – | inconclusive [activator, partial curve] |
| COC(=O)C1=C(c2cc3ccccc3o2)C[C@@H]2CC[C@H]1N2C(=O)NCc1ccc(F)cc1 | – | inconclusive [activator, partial curve, poor fit] |
| O=Cc1cn(Cc2cccc([N+](=O)[O-])c2)c2ccccc12 | inactive: 28% | – |
| Cc1c(Cl)cccc1NC(=O)CN1C(=O)C(C)N=C(c2ccccc2)c2ccccc21 (stereo unspecified) | – | inconclusive [activator, partial curve] |
| CC1Oc2cc3c(-c4c(O)cc(O)c5c(O)c6c(cc45)OC(C)C(C)C6=O)c(O)cc(O)c3c(O)c2C(=O)C1C (stereo unspecified) | – | inconclusive [activator, single point] |
| O=C(c1cc(F)ccc1F)C1CCCN(Cc2ccc3nonc3c2)C1 (stereo unspecified) | – | inconclusive [activator, full curve, poor fit] |
| CCN1CCCC(OC(=O)C(c2ccccc2)c2ccccc2)C1 (stereo unspecified) | – | inconclusive [activator, partial curve] |
| CCN1CCN(Cc2cc(Br)ccc2O)CC1 | inactive: -3.43% | – |
| Nc1c(C(=O)Nc2ccc(Br)cc2F)sc2nc3c(cc12)N1CCC3CC1 | inactive: 9.55% | – |
| O=[N+]([O-])c1cccc(O)c1 | – | inconclusive [activator, partial curve, poor fit] |
| CC(C)(Oc1ccc(Cl)cc1)C(=O)OCC(=O)N1CCN(c2ccccc2)CC1 | – | active: 14.1 µM |
| C=CCn1c(O)c(C(C)=NCCc2ccccc2)c(=O)[nH]c1=O | – | inconclusive [activator, partial curve] |
| O=C(NCC(c1cccnc1)N1CCN(c2ccccc2F)CC1)Oc1ccccc1 (stereo unspecified) | inactive: 0.168% | – |
| C=Cc1cc(OC)c2c(c1)c(=O)oc1c2cc(OC)c2c(O)ccc(C3OC(C)C(O)C(C)(O)C3O)c21 (stereo unspecified) | – | active: 14.1 µM |

| SMILES | growth rescue (activation) | Potency |
| --- | --- | --- |
| C[C@@]12CC[C@@H](c3cc4c(cc3C1)OCO4)N2c1ccccc1 | – | inconclusive [activator, partial curve, poor fit] |
| O=C(Nc1ccc2c(c1)OCO2)c1cccn(Cc2cccc(F)c2)c1=O | inactive: 10.7% | – |
| Cc1ccc(Cn2nnnc2CN2CCC(n3nnc4cc(C(F)(F)F)ccc43)CC2)cc1 | – | inconclusive [activator, single point] |
| Cn1cc(/C=C/c2nc3ccccc3c(=O)n2-c2ccccc2)c2ccccc21 | – | inconclusive [activator, partial curve] |
| N#CC(C#N)=Cc1ccc(-c2ccccc2F)o1 | – | inconclusive [activator, full curve, poor fit] |
| CN(C)C(=O)Oc1cccc(NC(=O)c2ccccc2C(F)(F)F)c1 | inactive: -9.25% | – |
| CC=CC(C)=CC(C)C(=O)CC(O)CC1CC(=O)NC(=O)C1 (stereo unspecified) | inconclusive: -76.9% [activator] | – |
| COc1ccc(-c2nnc3sc(C4CCCCC4)nn23)cc1OC | – | inconclusive [activator, partial curve] |
| C[C@]12CCCCC1=CC(=O)C1C2CC[C@@]2(C)C1C[C@@H](F)[C@@H]2O (stereo partly specified) | – | inconclusive [activator, partial curve] |
| c1ccc(C2NCc3ccccc3-n3cccc32)cc1 (stereo unspecified) | – | inconclusive [activator, full curve] |
| Cc1ccccc1C(=O)Nc1ccc2nc(SCC(=O)N(C)c3ccccc3)sc2c1 | – | active: 35.5 µM |
| Nc1ccc(Cl)cc1C(=O)c1ccccc1Cl | – | active: 20 µM |
| COc1ccc(C=C(C#N)c2ccc(OC)cc2)cc1 | – | inconclusive [activator, single point] |
| c1ccc(N2CCN(c3ncnc4c3nc3n4CCCCC3)CC2)cc1 | – | active: 14.1 µM |
| CCC(=O)CC(c1ccccc1)c1c(O)c2ccccc2sc1=O (stereo unspecified) | – | active: 25.1 µM |
| COc1ccc(O)c(CN2CCCC(C(=O)c3ccccc3SC)C2)c1 (stereo unspecified) | inactive: 0.905% | – |
| OCCN1C2CCC1CC(O)(c1ccc(F)cc1)C2 (stereo unspecified) | inactive: 5.51% | – |
| N[C@@H](Cc1ccc(N(CCCl)CCCl)cc1)C(=O)O | – | inconclusive [activator, partial curve] |
| CC(C)=CCOc1c2occc2cc2ccc(=O)oc12 | – | inconclusive [activator, single point] |
| O=C(CCc1ccccc1)N1Cc2cc(N3CCCCC3)ccc2-n2nncc2C1 | – | inconclusive [activator, single point] |
| CC(C)CN1Cc2ccccc2-n2nncc2C1 | – | inconclusive [activator, partial curve, poor fit] |
| COc1ccc(CN2Cc3cnnn3-c3ccccc3C2C)cc1 (stereo unspecified) | – | inconclusive [activator, partial curve] |
| COc1ccc(CN2C(=O)CC(=O)NC2=S)cc1 | – | inconclusive [activator, single point] |
| COC(=O)C1=C(c2ccc(OC(F)(F)F)cc2)C[C@@H]2CC[C@H]1N2C(=O)NCc1ccc(F)cc1 | – | active: 12.6 µM |

| SMILES | growth rescue (activation) | Potency |
| --- | --- | --- |
| O=C1NC(=O)C(=Cc2ccccc2Oc2ccc(F)cc2)C(=O)N1 | inactive: -13.3% | – |
| COc1ccc(-c2coc3c(C(=O)Nc4cc(OC)c(OC)c(OC)c4)cccc23)c(C)c1 | – | inconclusive [activator, full curve, poor fit] |
| COC(=O)C1=C(c2ccc(OC(F)(F)F)cc2)C[C@@H]2CC[C@H]1N2C(=O)N1CCCCC1 | – | active: 35.5 µM |
| Cc1ccc(/C=C2\C(=O)NC(=S)N(c3ccc(F)cc3)C2=O)o1 | – | active: 11.2 µM |
| Oc1c(Br)cc(-c2ccccc2)cc1Br | – | inconclusive [activator, single point] |
| COc1cccc(-n2cnc3scc(-c4cccs4)c3c2=O)c1 | – | active: 17.8 µM |
| Cc1nc2ccc(Cl)cc2c(=O)n1-c1ccccc1Cl | – | inconclusive [activator, single point] |
| O=C1SC(Cc2ccccc2)C(=O)N1c1ccccc1 (stereo unspecified) | – | inconclusive [activator, partial curve] |
| COC(=O)C1=Nc2ccccc2/C1=C\c1c(O)n(-c2ccc(OC)cc2)c(=O)[nH]c1=O | inactive: -28.6% | – |
| N#CC(C#N)=Cc1ccc(N2CCCC2)cc1 | – | inconclusive [activator, single point] |
| CC(C)=CCc1c(O)cc2c(c1O)C(=O)CC(c1ccc(O)cc1)O2 (stereo unspecified) | inconclusive: -65% [activator] | – |
| CN(C)C(Cc1ccccc1)C(=O)c1ccc(-c2ccccc2)cc1 (stereo unspecified) | – | inconclusive [activator, single point] |
| C[C@H]1CCCC(=O)CCC/C=C/c2cc(O)cc(O)c2C(=O)O1 | – | inconclusive [activator, full curve] |
| CCc1ccc(N2C(=O)NC(=O)/C(=C\C=C\c3ccco3)C2=O)cc1 | inactive: 0.974% | – |
| Cc1cc(O)c2c(c1)OC(C)(C)C1=C2CC(C)CC1 (stereo unspecified) | – | active: 12.6 µM |
| COc1ccc(C/C(=N\OC(C)=O)c2ccc(OC)cc2)cc1 | – | inconclusive [activator, single point] |
| N#Cc1ccccc1Cn1cc(C(=O)c2ccccc2F)c2ccccc21 | – | inconclusive [activator, single point] |
| c1cc2c(cc1[C@H]1OC[C@H]3[C@@H]1CO[C@@H]3c1ccc3c(c1)OCO3)OCO2 | – | active: 11.2 µM |
| CCCCCCN=C(CC)c1c(O)n(CCCC)c(=O)[nH]c1=O | – | inconclusive [activator, single point] |
| COc1ccc(CN2CCNCC2)c(OC)c1OC | – | inconclusive [activator, partial curve] |
| O=C(N/N=C/c1c(O)n(CCC2=CCCCC2)c(=O)[nH]c1=O)c1ccccc1 | inactive: 0.573% | – |
| CCCNC(=O)N1[C@H]2CC[C@@H]1C(C(=O)OC)=C(c1ccc(F)cc1OCc1ccccc1)C2 | – | inconclusive [activator, single point] |
| O=C1NC(c2cccnc2)Nc2sc3c(c21)CCCC3 (stereo unspecified) | – | inconclusive [activator, partial curve] |

Source: PubChem BioAssay AID652104 (National Center for Advancing Translational Sciences (NCATS), 2013)
